This data set concerns ATP. The experiment in a line: switch fluorescence ratio, 500 uM ATP over buffer (Cy3 cluster intensity, sum of 5 cycles each) (fold (ratio)); higher = stronger signal-on switching upon ATP binding; sequences stand for … in TCGTCGGCAGCGTCAGATGTGTATAAGAGACAGTTTTTTTTTTTTTTTTTTTTTTTTT…TC. The conditions noted are these: aptamer strand: ATP DNA aptamer (quencher-CACCTGGGGGAGTATTGCGGAGGAAGG + anchor), 100 nM annealed; ATP concentration: 500 uM; one replicate. The gist of the method: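 Values give the fluorescence ratio for each switch-domain sequence, averaged from per-cluster ratios of summed target-cycle to summed buffer-cycle Cy3 intensity. The Cy3-labelled switching-strand clusters sat on a modified Illumina MiSeq flow-cell, were annealed to 100 nM quencher-labelled ATP aptamer, and were imaged in selection buffer, then after 15 min with 500 uM ATP at 22 °C. Five cycles ran with NaOH stripping and re-annealing between them, and clusters outside 100-1000 RFU were excluded.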

Sequences with one replicate were seen in a single cluster, so their values are uncertain.
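Further: ATP exposure 15 min at 22 °C before imaging.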

For GTGGGAGT, the switch fluorescence ratio is 1.05.
As for TTTCCTCCTT, the figure is 1.64; as for CACGGTCCAT, 1.01; as for AAGCTCTGC, 0.966.
As for GCAAAACGTG, the figure is 1.06; as for GAGCTAGCTG, 1.03; as for ATGAGGTCGA, 0.923.
In the case of AGTCCATAAT it was 1.01.
On to GGGGTCTAT, for which the switch fluorescence ratio came out at 1.01.
With GGAATACCTT, the switch fluorescence ratio is 1.1.
In the case of AAATGGTGCT it was 1.05; in that of TCATGTGTAC, 1.02; in that of ATAGCAGTTG, 0.989.
In the case of ACGTCCTTAG it was 1.02.
With GAGCGTCTTG, the switch fluorescence ratio came to 0.958.
As for CACAGGTGTA, the figure is 4.18; as for GGACCGATAT, 1.08; as for ACTTCAGGTG, 5.18.
As for GTTGATAGTG, the figure is 1.01; as for GGTTTCAGTT, 1.02.
For TAGGTTCTTA, the switch fluorescence ratio is 1.03.
Turning to CCAAGCCTGC, the switch fluorescence ratio is 1.23.
As for AAGTATATCT, the figure is 1; as for GAAATTTTGG, 0.998.
On to GGGTTAG, for which the switch fluorescence ratio was 1.02.
For TTGTTGACCA, the switch fluorescence ratio stood at 0.972.
As for AGCCCTTCAT, the figure is 1.02.
Turning to GGGACAAGAG, the switch fluorescence ratio was determined as 1.02.
As for GGGCTGGATA, the figure is 0.994; as for CTGCACGGAT, 1.03.
As for AGGCTCGCTG, the figure is 0.989; as for TATGATGGAG, 1.04; as for AGACTTGGTT, 0.971.
As for TAGTCCAGAG, the figure is 0.974; as for ACCTAGTAGC, 1.03.
Take CGAGCTATAA: the switch fluorescence ratio turned out to be 5.15.
With CGATGTATGA, the switch fluorescence ratio came to 1.02.
As for CTGCAAAATC, the figure is 3.05.
As for ATTTCCGAGT, the figure is 1.08.
In the case of AATGTTTTT it was 0.997.
TGTTTCAAT: the switch fluorescence ratio amounted to 0.929.
With TTAGAAAACG, the switch fluorescence ratio is 0.955.
In the case of TCTTGTATCT it was 0.975.
In the case of TATCAAGATT it was 1.03; in that of TGGCCGCCGG, 1; in that of ATTTGTACCA, 0.992.
As for GTCATCTATG, the figure is 1.04; as for CTTTATTGA, 1.
Take AGTAACCACG: the switch fluorescence ratio stood at 1.03.
Consider TTCGACATGG, for which the switch fluorescence ratio was 1.
In the case of GAAAGGCTTA it was 0.984; in that of TGATAACCTG, 1.09.
In the case of TGAAGTCGTC it was 1.01; in that of CAAGGACTCC, 1.12.
As for TCCTTGGGAA, the figure is 0.999.
On to TATTGGATTC, for which the switch fluorescence ratio was determined as 0.99.
In the case of CGATGAATCG it was 0.994.
As for CGCAATGTGG, the figure is 1.93.
For the sequence TTGTAATTCA, the switch fluorescence ratio was found to be 1.01.
As for TAAGCCAGGC, the figure is 1; as for CTGAACCCGG, 1.07.
As to AGAATAATC, the switch fluorescence ratio is 1.
In the case of CAGAGGAGTC it was 0.942.
In the case of CAAGTATTT it was 1.01; in that of TGTGAGTAAG, 1.
In the case of CATCGCACGT, the switch fluorescence ratio amounted to 1.28.
In the case of TAGGGGACAC it was 0.952; in that of ATCGGTAAGA, 0.987; in that of CACTCCGTAT, 2.05.
As for CCGTTACTAT, the figure is 1.21.
In the case of TAATCCCCGT it was 1.26; in that of TCTTTCTTAC, 1.1.
As for GCGATCTTCC, the switch fluorescence ratio was determined as 2.43.
In the case of GGGAGGTGCA it was 0.979; in that of ACACAGGTGG, 1.23; in that of TGCGCGCCG, 1.
As for CTCGGTATCT, the figure is 0.996; as for TATCTGTCTA, 0.974; as for AATAAGGGCG, 0.951.
With CTAAAAGCCC, the switch fluorescence ratio was 1.48.
As for ATTCGGGCAA, the figure is 1.31; as for TATACCGTCC, 1.97.
Turning to CCGTCAGTT, the switch fluorescence ratio amounted to 1.01.
As for AGCGTGCCGA, the figure is 1.04.
As to CCACGGGTGG, the switch fluorescence ratio was 1.02.
As for TGATTATCGT, the figure is 1.
As for TTTTGCAAGA, the figure is 1.84.
In the case of AGATCTCCTG it was 0.991.
As for ACAAAAGTG, the switch fluorescence ratio worked out at 0.97.
As for GGTCGACTGA, the figure is 0.989; as for CGGTGCAGCC, 0.985.
Turning to TCTACGGCAG, the switch fluorescence ratio stood at 1.07.
As for GGGGCAAGTC, the figure is 1.12; as for AGCTACGTCC, 1.08; as for CGGCTACTCG, 1.34.
In the case of GGAAGGAGAC it was 0.964; in that of CGTACGTTTG, 1.02.
In the case of AAGACTTGG it was 1.04; in that of ATAGCCTAAA, 0.969; in that of TTCCTTTGTA, 1.05.
Regarding ATGTTTTGAC, the switch fluorescence ratio was found to be 0.983.
In the case of GACATTTAAC it was 1.04.
As for AAGGGATAAG, the figure is 0.976.
Consider TGTGGGTTCA, for which the switch fluorescence ratio worked out at 1.02.
Turning to ACGGGTCAGT, the switch fluorescence ratio turned out to be 1.04.
In the case of GGCAGGGTAA it was 1.01; in that of CTTTTGAGAT, 1.01; in that of TTGAGTCCGG, 1.02.
As for AAATGCTGCT, the figure is 1.02; as for CACCGGTAAT, 1.15; as for GCCTTACGTA, 1.15.
On to AGTCCTCCAG, for which the switch fluorescence ratio is 2.59.
As for TTGAGCAGCA, the figure is 0.976; as for GATGTAGCAC, 1.07; as for TACAATCATA, 0.939.
As for AATTGATAAC, the figure is 0.987; as for CCAGCTACTA, 1.24.
In the case of TGCTCTATAT it was 1.02; in that of TTTAACCATG, 0.94; in that of ATGAGAAT, 0.977.

The values are drawn from the supplement of paper PMC10126150.
